{"source": "ChEMBL document CHEMBL2021834", "about": "“Novel sulfonylurea derivatives as H3 receptor antagonists. Preliminary SAR studies” (Eur J Med Chem, 2012)"}
{"molecular_target": "Voltage-gated inwardly rectifying potassium channel KCNH2 (Homo sapiens, UniProt Q12809)", "sequence (Q12809 whole entry)": "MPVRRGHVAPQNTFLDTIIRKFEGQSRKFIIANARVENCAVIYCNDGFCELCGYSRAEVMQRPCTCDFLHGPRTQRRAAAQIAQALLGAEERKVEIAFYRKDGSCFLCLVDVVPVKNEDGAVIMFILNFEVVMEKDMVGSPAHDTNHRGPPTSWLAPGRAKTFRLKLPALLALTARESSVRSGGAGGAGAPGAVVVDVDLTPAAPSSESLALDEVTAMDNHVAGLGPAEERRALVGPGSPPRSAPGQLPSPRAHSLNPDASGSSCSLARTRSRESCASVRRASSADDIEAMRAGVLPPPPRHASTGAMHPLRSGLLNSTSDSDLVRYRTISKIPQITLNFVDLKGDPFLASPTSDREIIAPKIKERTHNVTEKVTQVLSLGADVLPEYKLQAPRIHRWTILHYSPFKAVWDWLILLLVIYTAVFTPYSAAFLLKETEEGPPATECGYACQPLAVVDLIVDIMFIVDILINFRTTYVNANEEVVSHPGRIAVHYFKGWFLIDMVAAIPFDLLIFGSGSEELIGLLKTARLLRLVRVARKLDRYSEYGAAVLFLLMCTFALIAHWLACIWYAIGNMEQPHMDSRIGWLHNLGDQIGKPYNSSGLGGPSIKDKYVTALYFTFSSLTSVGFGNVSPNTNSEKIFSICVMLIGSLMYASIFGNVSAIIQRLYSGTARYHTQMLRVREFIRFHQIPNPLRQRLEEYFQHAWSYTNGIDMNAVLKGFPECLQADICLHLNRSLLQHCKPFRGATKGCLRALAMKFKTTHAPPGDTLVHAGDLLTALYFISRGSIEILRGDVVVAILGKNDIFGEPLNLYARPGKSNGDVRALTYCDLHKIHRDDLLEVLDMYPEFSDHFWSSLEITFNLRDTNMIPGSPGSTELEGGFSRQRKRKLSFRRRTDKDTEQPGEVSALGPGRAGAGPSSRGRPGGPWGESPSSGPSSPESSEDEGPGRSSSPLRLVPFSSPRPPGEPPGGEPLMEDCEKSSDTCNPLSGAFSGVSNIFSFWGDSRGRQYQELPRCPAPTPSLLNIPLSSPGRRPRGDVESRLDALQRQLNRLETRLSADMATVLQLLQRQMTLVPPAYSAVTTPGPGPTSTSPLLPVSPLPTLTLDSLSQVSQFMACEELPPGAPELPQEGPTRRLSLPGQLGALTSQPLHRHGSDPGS", "units": {"IC50": "µM"}}
{"molecule": "O=C(Nc1ccc(C(F)(F)F)cc1)NS(=O)(=O)c1ccc(OCCCN2CCCCC2)cc1", "IC50": "> 100"}
{"molecule": "CCOC(=O)C1CCN(CCCOc2ccc(S(=O)(=O)NC(=O)Nc3ccccc3)cc2)CC1", "IC50": 78.7}
{"molecule": "CC(C)NC(=O)NS(=O)(=O)c1ccc(OCCCCN2CCCC2)cc1", "IC50": "> 100"}
{"molecule": "O=C(Nc1ccccc1)NS(=O)(=O)c1ccc(OCCCCN2CCCC2)cc1", "IC50": "> 100"}
{"molecule": "O=C(Nc1cc(Cl)ccc1Cl)NS(=O)(=O)c1ccc(OCCCCN2CCCC2)cc1", "IC50": "> 100"}
{"molecule": "CC(C)NC(=O)NS(=O)(=O)c1ccc(OCCCCN2CCCCC2)cc1", "IC50": "> 100"}
{"molecule": "O=C(Nc1ccccc1)NS(=O)(=O)c1ccc(OCCCCN2CCCCC2)cc1", "IC50": "> 100"}
{"molecule": "O=C(Nc1ccc(C(F)(F)F)cc1)NS(=O)(=O)c1ccc(OCCCCN2CCCCC2)cc1", "IC50": "> 100"}
{"molecule": "O=C(Nc1cccc(C(F)(F)F)c1)NS(=O)(=O)c1ccc(OCCCN2CCCC2)cc1", "IC50": "> 100"}
{"molecule": "CC(=O)c1ccc(NC(=O)NS(=O)(=O)c2ccc(OCCCN3CCCC3)cc2)cc1", "IC50": "> 100"}
{"molecule": "CC(=O)c1ccc(NC(=O)NS(=O)(=O)c2ccc(OCCCN3CCCCC3)cc2)cc1", "IC50": "> 100"}
{"molecule": "O=C(NC(c1ccccc1)c1ccccc1)NS(=O)(=O)c1ccc(OCCCN2CCCCC2)cc1", "IC50": "> 100"}
{"molecule": "NS(=O)(=O)c1ccc(OCCN2CCCC2)cc1", "IC50": "> 100"}
{"molecule": "NS(=O)(=O)c1ccc(OCCN2CCCCC2)cc1", "IC50": 24}
{"molecule": "NS(=O)(=O)c1ccc(OCCCN2CCCCC2)cc1", "IC50": 93.2}
{"molecule": "O=C(Nc1ccccc1)NS(=O)(=O)c1ccc(OCCN2CCCC2)cc1", "IC50": "> 100"}
{"molecule": "CC(C)NC(=O)NS(=O)(=O)c1ccc(OCCN2CCCCC2)cc1", "IC50": 26.1}
{"molecule": "CC(C)NC(=O)NS(=O)(=O)c1ccc(OCCCN2CCCC2)cc1", "IC50": "> 100"}
{"molecule": "O=C(Nc1cc(Cl)ccc1Cl)NS(=O)(=O)c1ccc(OCCCN2CCCC2)cc1", "IC50": "> 100"}
{"molecule": "O=C(Nc1ccc(C(F)(F)F)cc1)NS(=O)(=O)c1ccc(OCCCN2CCCC2)cc1", "IC50": "> 100"}
